The other results are listed elsewhere or left out.

This note sets out measurements from the supplement of paper PMC12645437, “Orthogonal IMiD-Degron Pairs Induce Selective Protein Degradation in Cells” (ACS Chemical Biology, 2025).

B1: Q9UKT9 (peptide)
chain: FACPICGHIFTQKGNLLRHIKL
B2: Q9UKT9 (peptide)
chain: FVCNQCGAFFTQKGNLLRHIKL
B3: Q9UKT9 (peptide)
chain: FNCPICGHCFTQKGNLLRHIKL
B4: Q9UKT9 (peptide)
chain: FVCNVCGAAFTQKGNLLRHIKL
B5: Q9UKT9 (peptide)
chain: FCCDICGAFFTQKGNLLRHIKL
B6: Q9UKT9 (peptide)
chain: FHCPICGALFTQKGNLLRHIKL
B7: Q9UKT9 (peptide)
chain: FSCNICGAHFTQKGNLLRHIKL
B8: Q9UKT9 (peptide)
chain: FCCEICGHLFTQKGNLLRHIKL
B9: Q9UKT9 (peptide)
chain: FNCEICGHYFTQKGNLLRHIKL
B10: Q9UKT9 (peptide)
chain: FMCPQCGAYFTQKGNLLRHIKL
B11: Q9UKT9 (peptide)
chain: FTCNQCGAWFTQKGNLLRHIKL
B12: Q9UKT9 (peptide)
chain: FCCPICGALFTQKGNLLRHIKL
B13: Q9UKT9 (peptide)
chain: FKCEICGRVFTQKGNLLRHIKL
B14: Q9UKT9 (peptide)
chain: FICNQCGRPFTQKGNLLRHIKL
B15: Q9UKT9 (peptide)
chain: FQCPQCGASFTQKGNLLRHIKL
B16: Q9UKT9 (peptide)
chain: FQCSVCGHMFTQKGNLLRHIKL
B17: Q9UKT9 (peptide)
chain: FVCPICGAWFTQKGNLLRHIKL
B18: Q9UKT9 (peptide)
chain: FQCEQCGADFTQKGNLLRHIKL
B19: Q9UKT9 (peptide)
chain: FKCNVCGAGFTQKGNLLRHIKL
B20: Q9UKT9 (peptide)
chain: FGCDQCGAYFTQKGNLLRHIKL
B21: Q9UKT9 (peptide)
chain: FHCNQCGAEFTQKGNLLRHIKL
B22: Q9UKT9 (peptide)
chain: FRCNQCGHVFTQKGNLLRHIKL
B23: Q9UKT9 (peptide)
chain: LCCEICGFHCTQKGNLLRHIKL
B24: Q9UKT9 (peptide)
chain: FVCPICGRHFTQKGNLLRHIKL
B25: Q9UKT9 (peptide)
chain: FFCDVCGAHFTQKGNLLRHIKL
B26: Q9UKT9 (peptide)
chain: FNCSVCGHCFTQKGNLLRHIKL
B27: Q9UKT9 (peptide)
chain: FTCNQCGHAFTQKGNLLRHIKL
B28: Q9UKT9 (peptide)
chain: FACDVCGAKFTQKGNLLRHIKL
B29: Q9UKT9 (peptide)
chain: FVCDVCGALFTQKGNLLRHIKL
B30: Q9UKT9 (peptide)
chain: LLCEICGFHCTQKGNLLRHIKL
B31: Q9UKT9 (peptide)
chain: LKCPICGFPCTQKGNLLRHIKL
B32: Q9UKT9 (peptide)
chain: FYCPICGAVFTQKGNLLRHIKL
B33: Q9UKT9 (peptide)
chain: FGCPQCGAMFTQKGNLLRHIKL
B34: Q9UKT9 (peptide)
chain: FICSVCGHKFTQKGNLLRHIKL
B35: Q9UKT9 (peptide)
chain: FCCPICGRCFTQKGNLLRHIKL
B36: Q9UKT9 (peptide)
chain: FTCNVCGAQFTQKGNLLRHIKL
B37: Q9UKT9 (peptide)
chain: FCCNQCGRTFTQKGNLLRHIKL
B38: Q9UKT9 (peptide)
chain: LHCEICGFQCTQKGNLLRHIKL
B39: Q9UKT9 (peptide)
chain: FSCPICGRSFTQKGNLLRHIKL
B40: Q9UKT9 (peptide)
chain: FRCSVCGHVFTQKGNLLRHIKL
B41: Q9UKT9 (peptide)
chain: FNCPICGRSFTQKGNLLRHIKL
B42: Q9UKT9 (peptide)
chain: FNCPQCGALFTQKGNLLRHIKL
B43: Q9UKT9 (peptide)
chain: FHCPICGHFFTQKGNLLRHIKL
B44: Q9UKT9 (peptide)
chain: FLCNQCGANFTQKGNLLRHIKL
B45: Q9UKT9 (peptide)
chain: FFCDICGAWFTQKGNLLRHIKL
B46: Q9UKT9 (peptide)
chain: FFCPICGHDFTQKGNLLRHIKL
B47: Q9UKT9 (peptide)
chain: FVCPVCGAGFTQKGNLLRHIKL
B48: Q9UKT9 (peptide)
chain: FWCNQCGAMFTQKGNLLRHIKL
B49: Q9UKT9 (peptide)
chain: FDCSVCGHRFTQKGNLLRHIKL
B50: Q9UKT9 (peptide)
chain: FQCEVCGAQFTQKGNLLRHIKL
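Also: jurkat cells carrying a lentiviral library of mutant zinc finger degrons fused to EGFP plus mCherry, mCherry+ cells FACS sorted, degron abundance counted by next-generation sequencing.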

In this assay the target is no compound (DMSO). The assay can be described thus: log2 fold change of degron read counts, EGFP-low vs EGFP+ sorted cells; higher = lower degron-EGFP level without compound (poor expression or instability). The following applies: compound: DMSO control; 18 h.
On to B1, for which the “log2 fold change of degron read counts” value was 0.49.

B2: the “log2 fold change of degron read counts” value is -0.221.

As to B3, the “log2 fold change of degron read counts” value was -0.638.

For the sequence B4, the “log2 fold change of degron read counts” value amounted to 0.159.

B5: the “log2 fold change of degron read counts” value was -0.95.

Turning to B6, the “log2 fold change of degron read counts” value stood at 0.0289.

As for B7, the “log2 fold change of degron read counts” value worked out at 0.151.

As to B8, the “log2 fold change of degron read counts” value was -1.41.

In the case of B9, the “log2 fold change of degron read counts” value is -0.0124.

For the sequence B10, the “log2 fold change of degron read counts” value stood at 0.0656.

For the sequence B11, the “log2 fold change of degron read counts” value was determined as 0.00869.

For B12, the “log2 fold change of degron read counts” value is -0.148.

B13: the “log2 fold change of degron read counts” value is -3.04.

Take B14: the “log2 fold change of degron read counts” value was -0.333.

For B15, the “log2 fold change of degron read counts” value is -0.852.

On to B16, for which the “log2 fold change of degron read counts” value was -0.751.

B17: the “log2 fold change of degron read counts” value came out at 0.938.

As for B18, the “log2 fold change of degron read counts” value was -2.22.

Consider B19, for which the “log2 fold change of degron read counts” value was -0.729.

As for B20, the “log2 fold change of degron read counts” value was 0.161.

Regarding B21, the “log2 fold change of degron read counts” value is -1.03.

On to B22, for which the “log2 fold change of degron read counts” value turned out to be 0.0806.

As for B23, the “log2 fold change of degron read counts” value was -0.0205.

As to B24, the “log2 fold change of degron read counts” value was -0.368.

Take B25: the “log2 fold change of degron read counts” value was -0.726.

With B26, the “log2 fold change of degron read counts” value turned out to be 0.163.

With B27, the “log2 fold change of degron read counts” value is -0.662.

For the sequence B28, the “log2 fold change of degron read counts” value was -0.72.

With B29, the “log2 fold change of degron read counts” value was -1.4.

In the case of B30, the “log2 fold change of degron read counts” value came out at 0.0233.

For the sequence B31, the “log2 fold change of degron read counts” value is 1.51.

For the sequence B32, the “log2 fold change of degron read counts” value is 0.489.

B33: the “log2 fold change of degron read counts” value is 0.303.

With B34, the “log2 fold change of degron read counts” value was -1.23.

For B35, the “log2 fold change of degron read counts” value was determined as 0.364.

In the case of B36, the “log2 fold change of degron read counts” value was -0.625.

Turning to B37, the “log2 fold change of degron read counts” value is -0.272.

In the case of B38, the “log2 fold change of degron read counts” value was -0.125.

Regarding B39, the “log2 fold change of degron read counts” value was -0.512.

As to B40, the “log2 fold change of degron read counts” value is -0.0479.

Turning to B41, the “log2 fold change of degron read counts” value is -0.571.

As for B42, the “log2 fold change of degron read counts” value was -0.505.

As for B43, the “log2 fold change of degron read counts” value turned out to be 0.0812.

Regarding B44, the “log2 fold change of degron read counts” value was -0.595.

In the case of B45, the “log2 fold change of degron read counts” value was 0.672.

Regarding B46, the “log2 fold change of degron read counts” value was -0.45.

B47: the “log2 fold change of degron read counts” value is -0.85.

As to B48, the “log2 fold change of degron read counts” value was determined as 0.391.

Consider B49, for which the “log2 fold change of degron read counts” value was -0.617.

Consider B50, for which the “log2 fold change of degron read counts” value was -1.37.
